# From PubChem BioAssay AID485297 (National Center for Advancing Translational Sciences (NCATS), 2010)
# Screen size: about 320,000 compounds; about 9,100 (2.8%) were called active. The shares of active, inactive and inconclusive entries below differ from those in the screen. Calls follow the shape of the dose curve; as a rule, active = well fitted activation curve with a large enough effect; inconclusive = small, poorly fitted or top-dose-only effect; inactive = no such curve, though single readings can be large or run the other way. Potencies of inconclusive entries are left out as doubtful fits.
# Experiment: qHTS Assay for Rab9 Promoter Activators; also: nearly all actives have a fitted effect of over 60% in size; as to activation, negative = inhibition: % of control where 0% means no effect
# Conditions: Huh7 Rab9 promoter-luciferase reporter, luminescence, 24 h; series mostly up to 9.22 µM; activation, negative = inhibition: at the top concentration
# Outline: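 Rab9 promoter-driven luciferase in stably transfected Huh7 cells; 1500 cells/well rested 2 h, exposed to compound in DMSO for 24 h at 37 °C, 5% CO2. Luminescence read 10 min after adding luciferase reagent at ambient temperature.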
# Potency is read from the fitted curve at half-maximal effect; tags tell the direction and shape of the fitted curve.
SMILES,Potency,"activation, negative = inhibition"
COc1cc(N=CC2=C(O)c3ccccc3C2=O)cc(OC)c1,"inconclusive [activator, single point]",
Cc1nc(SCC(=O)Nc2ccccc2)c2oc3ccccc3c2n1,,inactive: -12.9%
Cc1ccc(-c2c[n+](Cc3ccc(Cl)c(Cl)c3)c3n2CCC3)cc1,,inactive: -7.29%
CCN(CC)C(=O)C(=O)Nc1ccc(F)c(Cl)c1,"inconclusive [activator, partial curve]",
COC(=O)c1sc(NC(=S)NC(=O)c2ccccc2C)nc1C,"inconclusive [activator, partial curve]",
Cc1cc(C)c2c(N=NN3CCOCC3)[nH]nc2n1,,inactive: -0.26%
CS(=O)(=O)c1ccccc1C(=O)Nc1ccc(-c2nc3ccccc3[nH]2)cc1,active: 3.55 µM,
CCCCn1c(CN2CCN(c3cccc(Cl)c3)CC2)nc2c1c(=O)[nH]c(=O)n2C,,inactive: -7.56%
O=C(NC1CCCCC1)c1cc(-c2ccco2)on1,active: 1.58 µM,
CC(C)(C)c1ccc(-c2nc(-c3ccncc3)no2)cc1,active: 0.447 µM,
CCOc1cccc(/C=C2\NC(=S)N(c3ccccc3)C2=O)c1O,"inconclusive [activator, partial curve]",
CC1(C)CC(c2csc(N)n2)CCO1 (stereo unspecified),"inconclusive [activator, single point]",
COc1ccc2nc(NC(=O)c3sc4nc(C)cc(C)c4c3N)sc2c1,"inconclusive [activator, full curve]",
CCOC(=O)C1=CC[C@H]2c3c(c4ccccc4n3C)C(=O)C1N2S(=O)(=O)c1ccc(C)cc1,,inactive: -2.95%
Cc1ccc(NC(=O)Nc2cccs2)nc1,active: 2.24 µM,
CCN1CCN(/C=N/c2nc3c(s2)CCCC3)CC1,"inconclusive [activator, partial curve, poor fit]",
Cc1ccnc(N/N=C/c2ccccc2)n1,active: 1.26 µM,
N#Cc1ccsc1NC(=O)COC(=O)c1ccc2ccccc2c1,active: 0.447 µM,
CCOc1cc(C(=O)Nc2ccc(N3CCN(S(C)(=O)=O)CC3)cc2)cc(OCC)c1OCC,,inactive: -1.53%
Cc1ccc(NC(=O)COc2ccccc2C(=O)Nc2ccccc2)cc1Cl,,inactive: -3.28%
Cc1cc(C)nc(Nc2nc3ccccc3s2)n1,"inconclusive [activator, single point]",

SMILES,Potency,"activation, negative = inhibition"
CCc1nc2oc3cc(OC)ccc3c(=O)c2c(=O)n1-c1ccccc1,"inconclusive [activator, partial curve]",
CC(=O)c1cccc(NC(=S)NC(=O)c2ccccc2C)c1,,inactive: -5.24%
COC(=O)c1ccccc1NC(=S)N(Cc1ccc2c(c1)OCO2)Cc1cc2ccc(OC)cc2[nH]c1=O,,inactive: -5.26%
COC(=O)Cn1c2[n+](c3ccccc31)CC(O)CS2 (stereo unspecified),,inactive: -7.15%
COC(=O)c1cnc(SCC(=O)c2ccccc2)n1C,active: 1.12 µM,
CN1CCN(c2ccc(NC(=O)c3ccc(Cl)cc3)cn2)CC1,"inconclusive [activator, single point]",
COc1ccc2oc(C(=O)N(C)CCOc3ccccc3)c(C)c2c1,"inconclusive [activator, partial curve]",
O=C(CNC(=O)c1ccccc1O)N/N=C/c1ccccn1,"inconclusive [activator, partial curve, poor fit]",
Cc1ccc(O)c(NC(=O)c2noc3c2CCCCC3)c1,"inconclusive [activator, partial curve]",
O=C(Nc1ccc2c(c1)OCO2)c1cc(Cl)ccn1,active: 1.26 µM,
O=C(O)c1ccc(-n2cc(-c3cc4ccccc4oc3=O)[nH]c2=S)cc1,"inconclusive [activator, partial curve]",
CC(=O)c1sc(N/N=C2\CC3CC2C(C)C3(C)C)nc1C (stereo unspecified),"inconclusive [activator, partial curve]",
COc1ccccc1NC(=O)COC(=O)COc1ccccc1F,,inactive: -7.1%
Cc1cccc(-c2nc(C#N)c(N3CCCCC3)o2)c1,"inconclusive [activator, single point]",
CCOC(=O)c1sc(N)c(C(=O)OCC)c1C,"inconclusive [activator, single point]",
O=C(Nc1ccccc1)c1ccc(-n2cnnn2)cc1,"inconclusive [activator, single point]",
O=C(N/N=C/c1cc(Br)cc(Br)c1O)c1cccc(S(=O)(=O)N2CCOCC2)c1,,inactive: -6.35%
CCCCn1c(=O)c(CC(C)=O)nc2ccccc21,"inconclusive [activator, single point]",
O=C(Nc1cccc(Cl)c1)NC1CCS(=O)(=O)C1 (stereo unspecified),,inactive: -0.417%
CCOc1ccc(N=C(NN)c2ccc3ccccc3n2)cc1,"inconclusive [activator, single point]",
O=C(CCCN1CCOCC1)c1ccc2c(c1)OCCO2,active: 2 µM,

SMILES,Potency,"activation, negative = inhibition"
COc1ccc(NC(=O)Cc2ccccc2)cc1,"inconclusive [activator, partial curve]",
CN=c1scc(-c2ccccc2F)n1/N=C/c1ccc(O)c(O)c1O,"inconclusive [activator, partial curve, poor fit]",
Cc1ccc2nc(SCC(=O)N3CCOCC3)[nH]c2c1,active: 1.58 µM,
CCCc1nc(SCC(=O)c2ccccc2)c2c(=O)n(C)c(=O)n(C)c2n1,,inactive: -0.682%
Cc1c(/C=C/C(=O)c2cccs2)cnn1C,"inconclusive [activator, single point]",
O=C(O)c1cccc(Nc2nc(Nc3ccccc3)nc(N3CCCC3)n2)c1,"inconclusive [activator, single point]",
Cc1ccc(-c2nc3cccnc3s2)cc1NS(C)(=O)=O,"inconclusive [activator, partial curve]",
COc1ccc(N=Cc2nc(-c3ccccc3)oc2OC(=O)c2ccccc2)cc1,"inconclusive [activator, single point]",
Cc1ccc(O)c(N=Nc2ccc(S(=O)(=O)N3CCCC3)cc2)c1,"inconclusive [activator, partial curve]",
CC(=O)c1cccc(NC(=O)c2cc(-c3ccc(C)cc3)on2)c1,"inconclusive [activator, single point]",
O=C(CNC(=O)c1ccco1)Nc1ccc2c(c1)OCCO2,active: 1 µM,
CCNC(=O)C12CCC(C)(c3nc4cc(C)c(C)cc4nc31)C2(C)C (stereo unspecified),,inactive: -8.18%
Cc1cc(C(=O)CSc2n[nH]c(N)n2)c(C)n1-c1cccc(F)c1,"inconclusive [activator, partial curve]",
Brc1ccc2nc(N3CCN(c4ccccc4)CC3)sc2c1,active: 1 µM,
c1ccc(-c2nc(N3CCOCC3)c3ccccc3n2)nc1,,inactive: 0.393%
CCc1cc2c(=O)oc(-c3ccccc3F)nc2s1,,inactive: -1.99%
O=c1oc2ccccc2cc1-c1ccccc1,"inconclusive [activator, partial curve]",
O=C(CCC(=O)N1CCN(c2ccc(O)cc2)CC1)c1cccs1,,inactive: 2.65%
COc1ccc(-c2nc3c(Br)c(N)c(Br)cc3o2)cc1,"inconclusive [activator, single point]",
COC(=O)c1cc(C)nc2c1C(=O)C(=O)C=C2N1CCOCC1,,inactive: -48.9%
Cc1ccc(CSc2ccc(-c3cccs3)nn2)cc1,active: 2.82 µM,

SMILES,Potency,"activation, negative = inhibition"
O=S(=O)(Nc1cccc(-c2ccc(N3CCCCCC3)nn2)c1)c1ccccc1F,"inconclusive [activator, partial curve]",
CC(C)CCN(C(=O)c1ccc(Br)cc1)c1c(N)n(Cc2ccccc2)c(=O)[nH]c1=O,,inactive: 2.96%
CCCn1cnc2cc(NCc3ccccn3)ccc21,active: 3.16 µM,
S=C(NCc1ccccn1)Nc1ccccc1Cl,"inconclusive [activator, partial curve]",
Oc1sc(C=Nc2ccc(F)cc2)c2ccccc12,active: 2.82 µM,
Clc1ccc(CN=C2Nc3ccccc3CS2)cc1,active: 2.24 µM,
CCOc1ccc(-c2nnc(SCC(=O)N3CCOCC3)o2)cc1,active: 2.24 µM,
C/C(N)=C(/C#N)C(=O)COC(=O)c1cccc(O)c1,"inconclusive [activator, single point]",
Cc1ccc2cc(CCNC(=O)c3ccco3)c(=O)[nH]c2c1C,active: 1.41 µM,
CSc1ccccc1NC(=O)c1ccc(Br)o1,"inconclusive [activator, single point]",
O=[N+]([O-])c1cccc(C2=NC(c3ccccc3)CO2)c1 (stereo unspecified),"inconclusive [activator, single point]",
CN(C)c1cccc(C(=O)Nc2ccc(N3CCOCC3)cc2)c1,"inconclusive [activator, single point]",
Cc1cc(C)n(-c2cc(C(C)(C)C)nc3c(-c4ccccc4)cnn23)n1,active: 2.82 µM,
COc1ccc(/C=N/n2c(C)cc(C)cc2=O)cc1,"inconclusive [activator, partial curve]",
Cc1cc(C)nc(NC(=S)NC(=O)c2ccccc2)n1,"inconclusive [activator, partial curve]",
O=C(NCc1cn(-c2ccccc2)nc1-c1ccccc1)c1cccc([N+](=O)[O-])c1,,inactive: -1.36%
COc1ccccc1OCC#CCSc1ncccn1,"inconclusive [activator, single point]",
CCOc1ccc(CNc2nc3ccccc3n2C)cc1,active: 2 µM,
